US11365205B2 (Aurigene Discovery Technologies Limited, priority 2018, dated 2022)

These molecules were tested against PRMT5/MEP50 Complex (Homo sapiens (Human), UniProt O14744) (assay: PRMT5 inhibition based on TR-FRET assay). Conditions: 32 nM PRMT5:MEP50, 50 nM Histone-H4 peptide, 1 μM SAM.
Format: biochemical
Description: PRMT5 Inhibition Based on TR-FRET Assay:
Protein arginine methyltransferase 5 (PRMT5) is a type II arginine methyltransferase that catalyze mono- and symmetric demethylation on arginine residues of histone or non-histone proteins in presence of S-adenosylmethionine (AdoMet or SAM) a cofactor responsible for donating the methyl group. PRMT5 is reported to be overexpressed in several human cancers. To identify compounds that inhibit the PRMT5 and decrease its activity, a TR-FRET based assay has been established. Time-resolved fluorescence resonance energy transfer (TR-FRET) HTS assays are homogeneous proximity assays where the interaction of two dye-labeled binding partners is detected by the energy transfer between a donor and an acceptor dye and the subsequent light emission by the acceptor dye. PRMT5 catalyzes Histone H4 peptide which is biotin tagged to the Lysine amino acid at carboxyl end, in presence of S-adenosyl-1-methionine (SAM) to methylate the peptide. The antibody specific to mono methylated H4 peptide (H4R3) with Ig conjugate binds to the methylated peptide, indirectly binding to the Europium lanthanide. SureLight Allophycocyanin-Streptavidin binds to the biotin tag of the peptide, therefore accepting the energy transferred from the Europium lanthanide. This energy transfer between Europium to SureLight Allophycocyanin is a direct measure of the activity/inhibition of the PRMT5 enzyme.
Assay buffer: 20 mM BICINE (pH 7.6), 25 mM NaCl, 2 mM DTT, 0.01% Tween-20 and 0.01% BSA.
The compound dilutions were prepared as 7.5% DMSO stock solutions in assay buffer. To 2 μL (7.5×) of test compound, 5 μL of PRMT5 enzyme prepared in assay buffer (Final concentration of 32 nM in 15 μL reaction volume) was added and allowed for 30 minutes pre-incubation time in a white polystyrene 384-well plate at room temperature. […] The plates were then read on Victor-3 with Excitation at 340 nm and Emissions collected at 615 and 665 nm in TR-FRET protocol. […]

Chain of UniProt O14744 (O14744 whole entry): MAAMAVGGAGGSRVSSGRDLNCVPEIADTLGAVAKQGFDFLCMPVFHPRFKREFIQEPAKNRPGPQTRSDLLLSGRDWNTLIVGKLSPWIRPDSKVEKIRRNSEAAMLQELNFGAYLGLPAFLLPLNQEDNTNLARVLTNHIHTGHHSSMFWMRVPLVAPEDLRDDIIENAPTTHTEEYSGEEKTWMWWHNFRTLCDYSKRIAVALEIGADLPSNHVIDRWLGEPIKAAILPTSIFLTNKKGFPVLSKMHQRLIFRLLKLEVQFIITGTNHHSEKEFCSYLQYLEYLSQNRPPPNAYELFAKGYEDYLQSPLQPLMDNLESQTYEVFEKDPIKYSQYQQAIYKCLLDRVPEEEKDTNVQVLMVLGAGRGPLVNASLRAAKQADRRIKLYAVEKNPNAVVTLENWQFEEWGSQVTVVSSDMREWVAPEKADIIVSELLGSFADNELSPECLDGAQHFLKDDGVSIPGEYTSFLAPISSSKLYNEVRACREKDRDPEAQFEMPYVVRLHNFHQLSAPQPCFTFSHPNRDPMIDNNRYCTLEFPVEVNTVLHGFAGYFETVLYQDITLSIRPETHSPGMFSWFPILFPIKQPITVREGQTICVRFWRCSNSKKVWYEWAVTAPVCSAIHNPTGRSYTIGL
Chain of UniProt O14744 (Q9BQA1 whole entry partner): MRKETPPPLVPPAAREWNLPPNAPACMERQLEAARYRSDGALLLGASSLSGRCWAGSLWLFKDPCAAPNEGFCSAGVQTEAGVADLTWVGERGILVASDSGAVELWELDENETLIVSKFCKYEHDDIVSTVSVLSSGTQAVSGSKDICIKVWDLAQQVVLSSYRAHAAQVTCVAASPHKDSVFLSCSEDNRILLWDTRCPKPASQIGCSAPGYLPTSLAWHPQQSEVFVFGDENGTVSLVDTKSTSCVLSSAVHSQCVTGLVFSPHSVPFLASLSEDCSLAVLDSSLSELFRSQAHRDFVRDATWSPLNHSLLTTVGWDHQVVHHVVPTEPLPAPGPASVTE

Row | IC50 [nM] | Structure (SMILES)
1 | 70 | Cn1cnc2ccc(Cn3c(=O)n(CC(O)CN4CCc5ccccc5C4)c4ccccc43)cc21 (racemic) [Example 84, 1-(3-(3,4-Dihydroisoquinolin-2(1H)-yl)-2-hydroxypropyl)-3-((1-methyl-H-benzo[d]imidazol-6-yl)methyl)-1,3-dihydro-2H-benzo[d]imidazol-2-one]
2 | 770 | N#Cc1ccc(Cn2ccn(CC(O)CN3CCc4ccccc4C3)c2=O)cc1 (single isomer, unassigned) [Example 82a, 4-((3-(3-(3,4-dihydroisoquinolin-2(1H)-yl)-2-hydroxypropyl)-2-oxo-2,3-dihydro-1H-imidazol-1-yl)methyl)benzonitrile]
3 | 500 | Cc1ccc(Cn2ccn(CC(O)CN3CCc4ccccc4C3)c2=O)cc1 (stereo not drawn) [Example 83, 1-(3-(3,4-dihydroisoquinolin-2(1H)-yl)-2-hydroxypropyl)-3-(4-methylbenzyl)-1,3-dihydro-2H-imidazol-2-one]
